Assay results as given in the supplement of paper PMC4967469.
By IC50 is meant the dose at which the fit gives 50% viability; fits outside the tested doses are given as limits. The AUC spans the tested range (256-fold, ending at the top dose) of the same fit; values near 1 show little effect. For part of these data: Any top dose called inferred was calculated from the reported fits.

Experiments:
Experiment in all cases: Viability of human cancer cell lines after 72 h of drug (GDSC screen)
[1] = compound: C=CC(=O)Nc1cc(NC(=O)c2ccc(C)c(NC(=O)c3ccno3)c2)cc(C(F)(F)F)c1 [QL-XI-92]; conditions: top dose 10.24 µM; top dose inferred
Protocol: (§1)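 Human cancer cell lines in 384-well plates, medium with 10% serum, drug for 72 h over a 256-fold dose range (nine 2-fold or five 4-fold steps up to the top dose). Adherent lines were fixed and stained with the nucleic acid dye Syto60, suspension lines read with resazurin; signal relative to control wells, capped at 0 and 100%. One two-parameter sigmoid per drug and line, fitted in a mixed model over all curves with the slope shared within a line.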

[2] = compound: CNCc1ccc(-c2[nH]c3cc(F)cc4c3c2CCNC4=O)cc1 [AG-014699]; conditions: top dose 5 µM; top dose inferred
Protocol: as §1

[3] = compound: COc1cc2ncnc(Nc3cc(Br)c(O)c(Br)c3)c2cc1OC [WHI-P97]; conditions: top dose 10.24 µM; top dose inferred
Protocol: as §1

[4] = compound: N[C@@H](CSC(c1ccccc1)(c1ccccc1)c1ccccc1)C(=O)O [S-Trityl-L-cysteine]; conditions: top dose 5.12 µM; top dose inferred
Protocol: as §1

[5] = compound: CCC1=C[C@@H]2CN(C1)Cc1c([nH]c3ccccc13)[C@@](C(=O)OC)(c1cc3c(cc1OC)N(C)[C@H]1[C@@](O)(C(=O)OC)[C@H](OC(C)=O)[C@]4(CC)C=CCN5CC[C@]31[C@@H]54)C2 [Vinorelbine]; conditions: top dose 0.064 µM; top dose inferred
Protocol: as §1

[6] = compound: O=c1cc(N2CCOCC2)oc2c(-c3cccc4c3sc3ccccc34)cccc12 [NU-7441]; conditions: top dose 2 µM; top dose inferred
Protocol: as §1

[7] = compound: COc1cc2nccc(Oc3ccc(NC(=O)C4(C(=O)Nc5ccc(F)cc5)CC4)cc3)c2cc1OC [XL-184]; conditions: top dose 5.12 µM; top dose inferred
Protocol: as §1

[8] = compound: C#Cc1cccc(Nc2ncnc3cc(OCCOC)c(OCCOC)cc23)c1 [Erlotinib]; conditions: top dose 2 µM
Protocol: as §1

[9] = compound: O=c1cc(CN2CCOCC2)occ1OCCCCCSc1ccnc2cc(C(F)(F)F)ccc12 [EHT 1864]; conditions: top dose 10 µM; top dose inferred
Protocol: as §1

[10] = compound: COc1cc2ncnc(Nc3ccc(F)c(Cl)c3)c2cc1OCCCN1CCOCC1 [Gefitinib]; conditions: top dose 0.5 µM
Protocol: as §1

[11] = compound: N=C(N)NC(=N)NCCc1ccccc1 [Phenformin]; conditions: top dose 4000 µM; top dose inferred
Protocol: as §1

## OS-RC-2 (kidney, adherent)
[1]
  AUC: 0.948
  IC50: > 10.2 µM
[2]
  AUC: 0.962
  IC50: > 5 µM
[3]
  AUC: 0.969
  IC50: > 10.2 µM
[4]
  AUC: 0.89
  IC50: > 5.12 µM
[5]
  AUC: 0.783
  IC50: 0.0408 µM
[6]
  AUC: 0.905
  IC50: > 2 µM
[7]
  AUC: 0.906
  IC50: > 5.12 µM
[8]
  AUC: 0.716
  IC50: 0.681 µM
[9]
  AUC: 0.951
  IC50: > 10 µM
[10]
  AUC: 0.882
  IC50: > 0.5 µM
[11]
  AUC: 0.693
  IC50: 1120 µM

## P30-OHK (lymphoblastic leukaemia, suspension)
[1]
  AUC: 0.815
  IC50: 4.49 µM
[2]
  AUC: 0.987
  IC50: > 5 µM
[3]
  AUC: 0.93
  IC50: > 10.2 µM
[4]
  AUC: 0.984
  IC50: > 5.12 µM
[5]
  AUC: 0.569
  IC50: 0.00597 µM
[6]
  AUC: 0.93
  IC50: > 2 µM
[7]
  AUC: 0.817
  IC50: 2.28 µM
[8]
  AUC: 0.991
  IC50: > 2 µM
[9]
  AUC: 0.965
  IC50: > 10 µM
[10]
  AUC: 0.99
  IC50: > 0.5 µM
[11]
  AUC: 0.255
  IC50: 57.7 µM

## PSN1 (pancreas, adherent)
[1]
  AUC: 0.911
  IC50: > 10.2 µM
[2]
  AUC: 0.964
  IC50: > 5 µM
[3]
  AUC: 0.982
  IC50: > 10.2 µM
[4]
  AUC: 0.736
  IC50: 1.32 µM
[5]
  AUC: 0.988
  IC50: > 0.064 µM
[6]
  AUC: 0.984
  IC50: > 2 µM
[7]
  AUC: 0.918
  IC50: > 5.12 µM
[8]
  AUC: 0.991
  IC50: > 2 µM
[9]
  AUC: 0.991
  IC50: > 10 µM
[10]
  AUC: 0.991
  IC50: > 0.5 µM
[11]
  AUC: 0.466
  IC50: 205 µM

## RCC10RGB (kidney, adherent)
[1]
  AUC: 0.955
  IC50: > 10.2 µM
[2]
  AUC: 0.945
  IC50: > 5 µM
[3]
  AUC: 0.919
  IC50: > 10.2 µM
[4]
  AUC: 0.932
  IC50: > 5.12 µM
[5]
  AUC: 0.963
  IC50: > 0.064 µM
[6]
  AUC: 0.934
  IC50: > 2 µM
[7]
  AUC: 0.789
  IC50: > 5.12 µM
[8]
  AUC: 0.87
  IC50: > 2 µM
[9]
  AUC: 0.935
  IC50: > 10 µM
[10]
  AUC: 0.959
  IC50: > 0.5 µM
[11]
  AUC: 0.919
  IC50: > 4000 µM

## RL (B-cell lymphoma, suspension)
[1]
  AUC: 0.964
  IC50: > 10.2 µM
[2]
  AUC: 0.988
  IC50: > 5 µM
[3]
  AUC: 0.987
  IC50: > 10.2 µM
[4]
  AUC: 0.99
  IC50: > 5.12 µM
[5]
  AUC: 0.95
  IC50: > 0.064 µM
[6]
  AUC: 0.99
  IC50: > 2 µM
[7]
  AUC: 0.791
  IC50: 2.09 µM
[8]
  AUC: 0.99
  IC50: > 2 µM
[9]
  AUC: 0.984
  IC50: > 10 µM
[10]
  AUC: 0.988
  IC50: > 0.5 µM
[11]
  AUC: 0.595
  IC50: 446 µM

## RPMI-6666 (Hodgkin lymphoma, suspension)
[1]
  AUC: 0.724
  IC50: 3.18 µM
[2]
  AUC: 0.944
  IC50: > 5 µM
[3]
  AUC: 0.901
  IC50: > 10.2 µM
[4]
  AUC: 0.633
  IC50: 0.806 µM
[5]
  AUC: 0.565
  IC50: 0.00623 µM
[6]
  AUC: 0.951
  IC50: > 2 µM
[7]
  AUC: 0.771
  IC50: 2.36 µM
[8]
  AUC: 0.946
  IC50: > 2 µM
[9]
  AUC: 0.972
  IC50: > 10 µM
[10]
  AUC: 0.957
  IC50: > 0.5 µM
[11]
  AUC: 0.816
  IC50: 2820 µM
